# Test results: the GPR68 mutational scans of Howard et al. (2025)
# The least precise scores are not listed. Not listed are two conditions whose scores span a narrow range. Names with del lack the residues named; names with ins carry added residues between the positions named. For some assays here: The data file names ogerin without a concentration.
# B1: GPR68, Q15743 (parent)
# chain: MGNITADNSSMSCTIDHTIHQTLAPVVYVTVLVVGFPANCLSLYFGYLQIKARNELGVYLCNLTVADLFYICSLPFWLQYVLQHDNWSHGDLSCQVCGILLYENIYISVGFLCCISVDRYLAVAHPFRFHQFRTLKAAVGVSVVIWAKELLTSIYFLMHEEVIEDENQHRVCFEHYPIQAWQRAINYYRFLVGFLFPICLLLASYQGILRAVRRSHGTQKSRKDQIQRLVLSTVVIFLACFLPYHVLLLVRSVWEASCDFAKGVFNAYHFSLLLTSFNCVADPVLYCFVSETTHRDLARLRGACLAFLTCSRTGRAREAYPLGAPEASGKSGAQGEEPELLTKLHPAFQTPNSPGSGGFPTGRLA
# Experiments:
# [1] = variants of: B1; experiment: cAMP reporter score (Enrich2 score, wild type = 0); higher = more signal; HEK293T, FACS bins
# [2] = variants of: B1; experiment: surface expression score (Enrich2 score, wild type = 0); higher = more signal; HEK293T, FACS bins
Variant,cAMP reporter score ([1]; pH 5.5),cAMP reporter score ([1]; pH 6),"cAMP reporter score ([1]; pH 6, modulator: ogerin)","cAMP reporter score ([1]; pH 6.5, modulator: ogerin)",surface expression score [2]
MGNITADNSSMSCTIDHTIHQTLAPVVYVTVLVVGFPANCLSLYFGYLQIKARNELGVYLCNLTVADLFYICSLPFWLQYVLQHDNWSHLDLSCQVCGILLYENIYISVGFLCCISVDRYLAVAHPFRFHQFRTLKAAVGVSVVIWAKELLTSIYFLMHEEVIEDENQHRVCFEHYPIQAWQRAINYYRFLVGFLFPICLLLASYQGILRAVRRSHGTQKSRKDQIQRLVLSTVVIFLACFLPYHVLLLVRSVWEASCDFAKGVFNAYHFSLLLTSFNCVADPVLYCFVSETTHRDLARLRGACLAFLTCSRTGRAREAYPLGAPEASGKSGAQGEEPELLTKLHPAFQTPNSPGSGGFPTGRLA [G90L],-1.62,-0.634,-0.483,-0.884,-0.037
MGNITADNSSMSCTIDHTIHQTLAPVVYVTVLVVGFPANCLSLYFGYLQIKARNELGVYLCNLTVADLFYICSLPFWLQYVLQHDNWSHIDLSCQVCGILLYENIYISVGFLCCISVDRYLAVAHPFRFHQFRTLKAAVGVSVVIWAKELLTSIYFLMHEEVIEDENQHRVCFEHYPIQAWQRAINYYRFLVGFLFPICLLLASYQGILRAVRRSHGTQKSRKDQIQRLVLSTVVIFLACFLPYHVLLLVRSVWEASCDFAKGVFNAYHFSLLLTSFNCVADPVLYCFVSETTHRDLARLRGACLAFLTCSRTGRAREAYPLGAPEASGKSGAQGEEPELLTKLHPAFQTPNSPGSGGFPTGRLA [G90I],-0.3,-0.077,-0.785,-1.49,-0.992
MGNITADNSSMSCTIDHTIHQTLAPVVYVTVLVVGFPANCLSLYFGYLQIKARNELGVYLCNLTVADLFYICSLPFWLQYVLQHDNWSHKDLSCQVCGILLYENIYISVGFLCCISVDRYLAVAHPFRFHQFRTLKAAVGVSVVIWAKELLTSIYFLMHEEVIEDENQHRVCFEHYPIQAWQRAINYYRFLVGFLFPICLLLASYQGILRAVRRSHGTQKSRKDQIQRLVLSTVVIFLACFLPYHVLLLVRSVWEASCDFAKGVFNAYHFSLLLTSFNCVADPVLYCFVSETTHRDLARLRGACLAFLTCSRTGRAREAYPLGAPEASGKSGAQGEEPELLTKLHPAFQTPNSPGSGGFPTGRLA [G90K],-0.961,-0.31,-0.838,-0.511,1.74
MGNITADNSSMSCTIDHTIHQTLAPVVYVTVLVVGFPANCLSLYFGYLQIKARNELGVYLCNLTVADLFYICSLPFWLQYVLQHDNWSHMDLSCQVCGILLYENIYISVGFLCCISVDRYLAVAHPFRFHQFRTLKAAVGVSVVIWAKELLTSIYFLMHEEVIEDENQHRVCFEHYPIQAWQRAINYYRFLVGFLFPICLLLASYQGILRAVRRSHGTQKSRKDQIQRLVLSTVVIFLACFLPYHVLLLVRSVWEASCDFAKGVFNAYHFSLLLTSFNCVADPVLYCFVSETTHRDLARLRGACLAFLTCSRTGRAREAYPLGAPEASGKSGAQGEEPELLTKLHPAFQTPNSPGSGGFPTGRLA [G90M],-1.05,-0.539,0.444,-0.826,0.788
